The supplement of paper PMC8728848
The list shows a part of the results.

Experiments:
Assay in all cases: glycan array binding signal (z-score within array); higher = stronger binding
Details in all cases: glycan notation: IUPAC condensed, linker removed
[1] = biological target: Gal(b1-4)GlcNAc(b1-3)Gal(b1-4)GlcNAc(b1-2)Man(a1-3)[Gal(b1-4)GlcNAc(b1-3)Gal(b1-4)GlcNAc(b1-2)Man(a1-6)]Man(b1-4)GlcNAc(b1-4)[Fuc(a1-6)]GlcNAc
Summary of the method: (§1)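 From the Consortium for Functional Glycomics database, 3228 arrays were curated, keeping only those whose protein sequence was available. Binding is given as a within-array Z-score averaged across arrays sharing a protein sequence and across linkers. Negative Z-scores can be read as non-binding.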

[2] = biological target: Gal(b1-4)GlcNAc(b1-3)Gal(b1-4)GlcNAc(b1-2)[Gal(b1-4)GlcNAc(b1-3)Gal(b1-4)GlcNAc(b1-6)]Man(a1-6)[Gal(b1-4)GlcNAc(b1-3)Gal(b1-4)GlcNAc(b1-2)Man(a1-3)]Man(b1-4)GlcNAc(b1-4)GlcNAc
Summary of the method: as §1

[3] = biological target: Gal(b1-4)GlcNAc(b1-3)Gal(b1-4)GlcNAc(b1-2)[Gal(b1-4)GlcNAc(b1-3)Gal(b1-4)GlcNAc(b1-6)]Man(a1-6)[Gal(b1-4)GlcNAc(b1-3)Gal(b1-4)GlcNAc(b1-2)Man(a1-3)]Man(b1-4)GlcNAc(b1-4)[Fuc(a1-6)]GlcNAc
Summary of the method: as §1

[4] = biological target: Gal(b1-4)GlcNAc(b1-3)Gal(b1-4)GlcNAc(b1-3)Gal(b1-4)GlcNAc
Summary of the method: as §1

[5] = biological target: Gal(b1-4)GlcNAc(b1-3)Gal(b1-4)GlcNAc(b1-3)Gal(b1-4)GlcNAc(b1-2)Man(a1-3)[Gal(b1-4)GlcNAc(b1-3)Gal(b1-4)GlcNAc(b1-3)Gal(b1-4)GlcNAc(b1-2)Man(a1-6)]Man(b1-4)GlcNAc(b1-4)GlcNAc
Summary of the method: as §1

[6] = biological target: Gal(b1-4)GlcNAc(b1-3)Gal(b1-4)GlcNAc(b1-3)Gal(b1-4)GlcNAc(b1-2)Man(a1-3)[Gal(b1-4)GlcNAc(b1-3)Gal(b1-4)GlcNAc(b1-3)Gal(b1-4)GlcNAc(b1-2)Man(a1-6)]Man(b1-4)GlcNAc(b1-4)[Fuc(a1-6)]GlcNAc
Summary of the method: as §1

[7] = biological target: Gal(b1-4)GlcNAc(b1-3)Gal(b1-4)GlcNAc(b1-3)Gal(b1-4)GlcNAc(b1-2)[Gal(b1-4)GlcNAc(b1-3)Gal(b1-4)GlcNAc(b1-3)Gal(b1-4)GlcNAc(b1-6)]Man(a1-6)[Gal(b1-4)GlcNAc(b1-3)Gal(b1-4)GlcNAc(b1-3)Gal(b1-4)GlcNAc(b1-2)Man(a1-3)]Man(b1-4)GlcNAc(b1-4)[Fuc(a1-6)]GlcNAc
Summary of the method: as §1

[8] = biological target: Gal(b1-4)GlcNAc(b1-3)Gal(b1-4)GlcNAc(b1-3)Gal(b1-4)GlcNAc(b1-3)Gal(b1-4)GlcNAc(b1-2)Man(a1-3)[Gal(b1-4)GlcNAc(b1-3)Gal(b1-4)GlcNAc(b1-3)Gal(b1-4)GlcNAc(b1-3)Gal(b1-4)GlcNAc(b1-2)Man(a1-6)]Man(b1-4)GlcNAc(b1-4)GlcNAc
Summary of the method: as §1

[9] = biological target: Gal(b1-4)GlcNAc(b1-3)Gal(b1-4)GlcNAc(b1-3)Gal(b1-4)GlcNAc(b1-3)Gal(b1-4)GlcNAc(b1-2)Man(a1-3)[Gal(b1-4)GlcNAc(b1-3)Gal(b1-4)GlcNAc(b1-3)Gal(b1-4)GlcNAc(b1-3)Gal(b1-4)GlcNAc(b1-2)Man(a1-6)]Man(b1-4)GlcNAc(b1-4)[Fuc(a1-6)]GlcNAc
Summary of the method: as §1

[10] = biological target: Gal(b1-4)GlcNAc(b1-3)Gal(b1-4)GlcNAc(b1-3)Gal(b1-4)GlcNAc(b1-3)Gal(b1-4)GlcNAc(b1-2)[Gal(b1-4)GlcNAc(b1-3)Gal(b1-4)GlcNAc(b1-3)Gal(b1-4)GlcNAc(b1-3)Gal(b1-4)GlcNAc(b1-6)]Man(a1-6)[Gal(b1-4)GlcNAc(b1-3)Gal(b1-4)GlcNAc(b1-3)Gal(b1-4)GlcNAc(b1-3)Gal(b1-4)GlcNAc(b1-2)Man(a1-3)]Man(b1-4)GlcNAc(b1-4)[Fuc(a1-6)]GlcNAc
Summary of the method: as §1

[11] = biological target: Gal(b1-4)GlcNAc(b1-3)Gal(b1-4)GlcNAc(b1-3)Gal(b1-4)GlcNAc(b1-3)Gal(b1-4)GlcNAc(b1-3)Gal(b1-4)GlcNAc(b1-2)Man(a1-3)[Gal(b1-4)GlcNAc(b1-3)Gal(b1-4)GlcNAc(b1-3)Gal(b1-4)GlcNAc(b1-3)Gal(b1-4)GlcNAc(b1-3)Gal(b1-4)GlcNAc(b1-2)Man(a1-6)]Man(b1-4)GlcNAc(b1-4)GlcNAc
Summary of the method: as §1

[12] = biological target: Gal(b1-4)GlcNAc(b1-3)Gal(b1-4)GlcNAc(b1-3)Gal(b1-4)GlcNAc(b1-3)Gal(b1-4)GlcNAc(b1-3)Gal(b1-4)GlcNAc(b1-2)Man(a1-3)[Gal(b1-4)GlcNAc(b1-3)Gal(b1-4)GlcNAc(b1-3)Gal(b1-4)GlcNAc(b1-3)Gal(b1-4)GlcNAc(b1-3)Gal(b1-4)GlcNAc(b1-2)Man(a1-6)]Man(b1-4)GlcNAc(b1-4)[Fuc(a1-6)]GlcNAc
Summary of the method: as §1

[13] = biological target: Gal(b1-4)GlcNAc(b1-3)Gal(b1-4)GlcNAc(b1-3)Gal(b1-4)GlcNAc(b1-3)Gal(b1-4)GlcNAc(b1-3)Gal(b1-4)GlcNAc(b1-2)[Gal(b1-4)GlcNAc(b1-3)Gal(b1-4)GlcNAc(b1-3)Gal(b1-4)GlcNAc(b1-3)Gal(b1-4)GlcNAc(b1-3)Gal(b1-4)GlcNAc(b1-6)]Man(a1-6)[Gal(b1-4)GlcNAc(b1-3)Gal(b1-4)GlcNAc(b1-3)Gal(b1-4)GlcNAc(b1-3)Gal(b1-4)GlcNAc(b1-3)Gal(b1-4)GlcNAc(b1-2)Man(a1-3)]Man(b1-4)GlcNAc(b1-4)[Fuc(a1-6)]GlcNAc
Summary of the method: as §1

[14] = biological target: Gal(b1-4)GlcNAc(b1-3)Gal(b1-4)GlcNAc(b1-3)Gal(b1-4)GlcNAc(b1-3)Gal(b1-4)GlcNAc(b1-3)Gal(b1-4)GlcNAc(b1-3)Gal(b1-4)GlcNAc(b1-2)Man(a1-3)[Gal(b1-4)GlcNAc(b1-3)Gal(b1-4)GlcNAc(b1-3)Gal(b1-4)GlcNAc(b1-3)Gal(b1-4)GlcNAc(b1-3)Gal(b1-4)GlcNAc(b1-3)Gal(b1-4)GlcNAc(b1-2)Man(a1-6)]Man(b1-4)GlcNAc(b1-4)GlcNAc
Summary of the method: as §1

[15] = biological target: Gal(b1-4)GlcNAc(b1-3)Gal(b1-4)GlcNAc(b1-3)GalNAc
Summary of the method: as §1

[16] = biological target: Gal(b1-4)GlcNAc(b1-3)Gal(b1-4)GlcNAc(b1-3)[Gal(b1-4)GlcNAc(b1-3)Gal(b1-4)GlcNAc(b1-6)]GalNAc
Summary of the method: as §1

[17] = biological target: Gal(b1-4)GlcNAc(b1-3)Gal(b1-4)GlcNAc(b1-6)[Gal(b1-3)]GalNAc
Summary of the method: as §1

[18] = biological target: Gal(b1-4)GlcNAc(b1-3)Gal(b1-4)[Fuc(a1-3)]GlcNAc(b1-3)Gal(b1-4)[Fuc(a1-3)]GlcNAc
Summary of the method: as §1

[19] = biological target: Gal(b1-4)GlcNAc(b1-3)GalNAc
Summary of the method: as §1

[20] = biological target: Gal(b1-4)GlcNAc(b1-3)[Fuc(a1-3)GlcNAc(b1-6)]Gal(b1-4)Glc
Summary of the method: as §1

[21] = biological target: Gal(b1-4)GlcNAc(b1-3)[Gal(b1-4)GlcNAc(b1-6)]Gal(b1-4)GlcNAc
Summary of the method: as §1

[22] = biological target: Gal(b1-4)GlcNAc(b1-3)[GlcNAc(b1-6)]Gal(b1-4)GlcNAc
Summary of the method: as §1

B1: CC1G-11630 (Coprinopsis cinerea), A8P462 (protein)
chain: MTTEAKIKLKAVVYWELVFDYDNSSNTGEITQSYTVKISQTSTRSTFASEVSTTTIDTLTKNNQEVDVGASYGAISANVSASWEHSEEVNNMLEKTTQTSTEDTYTVETEETRSYTIGPGGMLSLFQKHFSGPGMHVAFDVFTTDLELAKERTEIDIDVDVEAIRFVREIRVVYTDIMSEAPGDHVREINGKNPDINYGFNGKFVWLVPEQTRKTAQALTNVEFVSQAESDDRYWDLAAGAGGSNRYLIPVYDTNNKDKIYELALWRSDSYITHDKVKAAGWSGTTGDINSGRGGTYLNLVWKTRHAY
[1]
  glycan array binding signal (z-score): -0.469
[2]
  glycan array binding signal (z-score): 1.86
[3]
  glycan array binding signal (z-score): -0.146
[4]
  glycan array binding signal (z-score): 0
[5]
  glycan array binding signal (z-score): 1.59
[6]
  glycan array binding signal (z-score): -0.176
[7]
  glycan array binding signal (z-score): 0.309
[8]
  glycan array binding signal (z-score): 0.125
[9]
  glycan array binding signal (z-score): 0.196
[10]
  glycan array binding signal (z-score): 0.021
[11]
  glycan array binding signal (z-score): -0.29
[12]
  glycan array binding signal (z-score): 0.479
[13]
  glycan array binding signal (z-score): -0.067
[14]
  glycan array binding signal (z-score): -0.034
[15]
  glycan array binding signal (z-score): -0.35
[16]
  glycan array binding signal (z-score): 0.111
[17]
  glycan array binding signal (z-score): -0.07
[18]
  glycan array binding signal (z-score): -0.162
[19]
  glycan array binding signal (z-score): -0.41
[20]
  glycan array binding signal (z-score): -0.538
[21]
  glycan array binding signal (z-score): -0.647
[22]
  glycan array binding signal (z-score): -0.851
